Measured values as given in article PMC7948509.
Results are given in words; binding and its absence hold for the method and conditions named. Binding seen in cells or lysates may run through a third protein. Some entries that bind do so weakly or less than the wild type. For some of these results: Where a sequence is shown, tags or fusion partners need not be part of it.

Amino acid sequences for entries named in this document (tags omitted).
UniProt P46937: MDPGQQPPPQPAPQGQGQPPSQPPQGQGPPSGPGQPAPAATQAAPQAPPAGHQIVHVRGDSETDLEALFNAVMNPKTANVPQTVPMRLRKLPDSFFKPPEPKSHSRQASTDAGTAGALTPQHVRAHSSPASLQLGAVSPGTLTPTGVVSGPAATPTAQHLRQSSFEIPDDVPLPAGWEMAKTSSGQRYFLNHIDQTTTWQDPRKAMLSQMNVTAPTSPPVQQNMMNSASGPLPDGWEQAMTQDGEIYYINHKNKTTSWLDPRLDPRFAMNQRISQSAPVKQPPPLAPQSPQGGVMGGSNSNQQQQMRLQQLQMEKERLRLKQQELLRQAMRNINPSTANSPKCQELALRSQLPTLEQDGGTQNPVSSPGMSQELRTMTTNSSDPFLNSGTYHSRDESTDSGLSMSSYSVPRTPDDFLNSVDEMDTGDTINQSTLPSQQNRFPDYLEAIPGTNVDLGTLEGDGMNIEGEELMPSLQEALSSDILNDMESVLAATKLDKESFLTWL
UniProt Q9BSQ5: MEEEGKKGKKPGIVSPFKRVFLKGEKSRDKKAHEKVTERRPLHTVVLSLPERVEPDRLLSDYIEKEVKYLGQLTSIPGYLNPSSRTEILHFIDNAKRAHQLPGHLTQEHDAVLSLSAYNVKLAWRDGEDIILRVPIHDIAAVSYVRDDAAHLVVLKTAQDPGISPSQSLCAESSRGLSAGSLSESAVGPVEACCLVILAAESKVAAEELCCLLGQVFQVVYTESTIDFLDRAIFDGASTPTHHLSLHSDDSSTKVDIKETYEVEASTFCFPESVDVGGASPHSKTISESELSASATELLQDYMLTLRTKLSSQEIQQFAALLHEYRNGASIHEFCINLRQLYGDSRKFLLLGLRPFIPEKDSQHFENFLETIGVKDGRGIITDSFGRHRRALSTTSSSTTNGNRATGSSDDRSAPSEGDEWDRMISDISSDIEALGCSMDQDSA
UniProt Q9BUL8: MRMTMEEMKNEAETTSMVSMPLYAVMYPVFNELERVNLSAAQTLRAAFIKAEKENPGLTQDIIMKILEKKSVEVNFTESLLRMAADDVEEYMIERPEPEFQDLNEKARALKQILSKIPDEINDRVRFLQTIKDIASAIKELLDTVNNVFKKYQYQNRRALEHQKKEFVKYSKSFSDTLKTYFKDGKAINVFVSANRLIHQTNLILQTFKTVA
UniProt Q9GZV5: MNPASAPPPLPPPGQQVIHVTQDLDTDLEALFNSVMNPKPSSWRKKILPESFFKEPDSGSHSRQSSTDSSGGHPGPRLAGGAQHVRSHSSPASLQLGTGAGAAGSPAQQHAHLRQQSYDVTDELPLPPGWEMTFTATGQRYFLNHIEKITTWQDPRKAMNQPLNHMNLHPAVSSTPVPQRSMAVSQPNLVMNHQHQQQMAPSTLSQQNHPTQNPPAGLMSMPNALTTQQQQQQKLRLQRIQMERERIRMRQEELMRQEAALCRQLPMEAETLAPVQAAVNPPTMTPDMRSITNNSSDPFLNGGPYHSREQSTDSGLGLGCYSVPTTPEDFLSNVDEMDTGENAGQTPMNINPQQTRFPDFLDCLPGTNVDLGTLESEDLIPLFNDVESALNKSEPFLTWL

Assays:
[1] = biological target: T1, MEKK2-Flag (human) (UniProt Q9Y2U5); assay: co-IP; LATS1/2 DKO HEK293A cells transiently transfected; MEKK2-Flag or MEKK3-Flag immunoprecipitated; associated HA-tagged protein detected by immunoblotting (Fig. 3A, 3B)
T1 sequence: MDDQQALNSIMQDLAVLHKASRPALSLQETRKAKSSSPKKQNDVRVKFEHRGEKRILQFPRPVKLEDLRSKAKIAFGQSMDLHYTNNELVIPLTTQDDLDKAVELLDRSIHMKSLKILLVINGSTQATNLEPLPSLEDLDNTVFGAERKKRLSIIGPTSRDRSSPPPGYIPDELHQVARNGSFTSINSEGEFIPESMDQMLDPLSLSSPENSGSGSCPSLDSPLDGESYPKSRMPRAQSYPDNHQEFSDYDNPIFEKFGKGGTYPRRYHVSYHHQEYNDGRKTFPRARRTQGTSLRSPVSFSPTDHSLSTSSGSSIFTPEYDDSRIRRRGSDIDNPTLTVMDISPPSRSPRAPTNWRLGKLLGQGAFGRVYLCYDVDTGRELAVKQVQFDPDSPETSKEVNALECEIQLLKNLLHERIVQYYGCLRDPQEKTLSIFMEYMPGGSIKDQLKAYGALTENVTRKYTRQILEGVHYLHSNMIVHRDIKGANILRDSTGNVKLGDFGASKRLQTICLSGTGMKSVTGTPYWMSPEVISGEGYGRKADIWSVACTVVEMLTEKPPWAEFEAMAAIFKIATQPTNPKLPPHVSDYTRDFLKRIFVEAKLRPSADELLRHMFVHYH

[2] = biological target: T2, MEKK3-Flag (human) (UniProt Q99759); assay: as above
T2 sequence: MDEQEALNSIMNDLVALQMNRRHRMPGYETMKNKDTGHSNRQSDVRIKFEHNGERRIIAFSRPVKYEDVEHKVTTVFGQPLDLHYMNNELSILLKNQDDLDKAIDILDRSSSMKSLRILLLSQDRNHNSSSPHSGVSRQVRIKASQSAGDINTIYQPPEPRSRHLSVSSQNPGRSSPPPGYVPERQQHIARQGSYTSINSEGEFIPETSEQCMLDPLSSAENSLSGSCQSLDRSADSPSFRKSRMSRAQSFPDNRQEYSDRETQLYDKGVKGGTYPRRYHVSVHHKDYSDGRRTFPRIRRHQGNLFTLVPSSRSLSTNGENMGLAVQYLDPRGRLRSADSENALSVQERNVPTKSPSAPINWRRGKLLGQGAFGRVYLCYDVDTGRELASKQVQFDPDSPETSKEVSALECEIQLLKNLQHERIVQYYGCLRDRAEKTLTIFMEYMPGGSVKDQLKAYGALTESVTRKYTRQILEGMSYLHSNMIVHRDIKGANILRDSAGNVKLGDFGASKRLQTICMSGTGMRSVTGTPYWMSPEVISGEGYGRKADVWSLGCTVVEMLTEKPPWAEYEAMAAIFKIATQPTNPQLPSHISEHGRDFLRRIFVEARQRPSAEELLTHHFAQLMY

[3] = biological target: T3, MEKK3-HA (human) (UniProt Q99759); assay: co-IP; MEKK3-HA co-expressed with both CCM2-Flag and CCM3-Flag in HEK293A cells; immunoprecipitation by anti-HA antibody; detection by anti-Flag antibody (Fig. S6B, 6C untreated)
T3 sequence: T2 sequence

[4] = biological target: T4, LATS1 (endogenous) (human (endogenous in HEK293T)) (UniProt O95835); assay: co-IP; endogenous LATS1 immunoprecipitated from YAP/TAZ knockdown HEK293T cells; immunoblot with anti-MEKK2 and anti-MEKK3 antibodies (Fig. 2G)
T4 sequence: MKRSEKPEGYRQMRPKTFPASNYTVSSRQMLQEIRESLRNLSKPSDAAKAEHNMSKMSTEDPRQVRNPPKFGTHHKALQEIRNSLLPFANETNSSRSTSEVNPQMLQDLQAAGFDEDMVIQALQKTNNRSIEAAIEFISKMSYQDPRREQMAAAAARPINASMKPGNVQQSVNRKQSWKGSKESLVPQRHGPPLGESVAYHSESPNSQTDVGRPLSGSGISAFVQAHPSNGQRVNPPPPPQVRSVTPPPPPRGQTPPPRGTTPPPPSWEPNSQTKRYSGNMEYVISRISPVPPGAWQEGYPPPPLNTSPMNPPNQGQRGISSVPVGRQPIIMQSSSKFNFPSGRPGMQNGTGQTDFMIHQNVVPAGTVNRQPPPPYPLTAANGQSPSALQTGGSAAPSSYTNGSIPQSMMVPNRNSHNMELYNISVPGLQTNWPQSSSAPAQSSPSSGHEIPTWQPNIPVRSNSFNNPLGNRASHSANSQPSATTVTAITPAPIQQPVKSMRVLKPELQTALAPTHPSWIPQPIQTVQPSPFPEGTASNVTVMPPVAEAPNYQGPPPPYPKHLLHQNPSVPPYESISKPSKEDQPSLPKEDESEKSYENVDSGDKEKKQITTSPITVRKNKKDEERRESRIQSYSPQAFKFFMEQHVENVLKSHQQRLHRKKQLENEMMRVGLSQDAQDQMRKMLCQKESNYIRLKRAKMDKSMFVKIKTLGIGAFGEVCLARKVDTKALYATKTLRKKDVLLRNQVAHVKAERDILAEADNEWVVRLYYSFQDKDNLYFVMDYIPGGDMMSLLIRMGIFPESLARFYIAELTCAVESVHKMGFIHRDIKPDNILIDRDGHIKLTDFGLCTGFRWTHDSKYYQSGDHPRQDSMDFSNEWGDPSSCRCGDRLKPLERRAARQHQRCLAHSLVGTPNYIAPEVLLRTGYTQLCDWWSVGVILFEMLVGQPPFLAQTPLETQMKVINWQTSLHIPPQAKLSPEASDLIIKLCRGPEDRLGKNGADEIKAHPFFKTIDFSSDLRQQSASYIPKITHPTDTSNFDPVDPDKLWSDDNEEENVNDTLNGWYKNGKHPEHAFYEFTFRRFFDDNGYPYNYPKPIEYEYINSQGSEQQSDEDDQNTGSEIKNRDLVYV

[5] = biological target: YAP (endogenous) (human (endogenous in HEK293A)) (UniProt P46937); assay: co-IP; endogenous; immunoprecipitation from LATS1/2 DKO HEK293A cell lysates by anti-YAP antibody; blotted with anti-YAP, MEKK2 or MEKK3 antibodies (Fig. 3C)
[6] = biological target: CCM2-Flag (UniProt Q9BSQ5); assay: co-IP; HEK293T cells transfected with the tagged plasmids; lysis in 50 mM Tris pH 7.4, 150 mM NaCl, 1% NP-40, 1 mM EDTA; anti-Flag M2 magnetic beads, 4 °C overnight; immunoblot for the HA-tagged partner (Fig. 2F, 6A, 6B); MEKK2/3 with LATS1/2 also in YAP/TAZ knockdown cells (Fig. S2G-I)
[7] = biological target: CCM3-Flag (UniProt Q9BUL8); assay: as above
[8] = biological target: Flag-YAP (UniProt P46937); assay: as above

HA-TAZ (from UniProt Q9GZV5 1-400)
binding [1]: binds
binding [2]: binds

CCM2-Flag (from UniProt Q9BSQ5 1-444)
binding [3]: binds

HA-YAP (from UniProt P46937 1-504)
binding [1]: binds
binding [2]: binds

B1: MEKK2 (endogenous) (protein, UniProt Q9Y2U5 1-619)
chain: T1 sequence
binding [4]: binds
binding [5]: binds

B2: MEKK3 (endogenous) (protein, UniProt Q99759 1-626)
chain: T2 sequence
binding [4]: binds
binding [5]: binds

B3: MEKK3-HA (protein, UniProt Q99759 1-626)
chain: T2 sequence
binding [6]: binds

B4: MEKK2-HA (protein, UniProt Q9Y2U5 1-619)
chain: T1 sequence
binding [7]: no binding
binding [8]: binds
binding [6]: no binding
